# Assay results published in a collection of fitness landscapes (doi:10.1038/s41467-024-54723-y).
# The full ranking holds about 18,000 sequences; the median of “TetR repression strength (sort-seq, GFP reporter)” is about 0.23, and the highest 2% start at about 0.68. Some of the results follow.
# Target: TetR (class B, Tn10) (UniProt P04483)
# Experiment: TetR repression strength (sort-seq, GFP reporter) (relative to tetO2 = 1); higher = stronger repression
# Settings: E. coli
# Outline: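 Escherichia coli SIG10-MAX cells carried a low-copy plasmid library in which eight operator positions were randomized between a constitutive promoter and sfGFP, and TetR was expressed constitutively. After 5 h of growth at 37 °C in LB with 50 µg/mL chloramphenicol, 10^6 cells were FACS-sorted into 13 fluorescence bins, and each bin was Illumina-sequenced. Repression strength was the top bin index plus one minus the read-weighted mean bin, divided by the value for the unaltered operator. Across three independent transformations, only library members with ≥30 reads in every replicate and a CV ≤0.5 were averaged.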
# UniProt P04483, sequence (P04483 whole entry): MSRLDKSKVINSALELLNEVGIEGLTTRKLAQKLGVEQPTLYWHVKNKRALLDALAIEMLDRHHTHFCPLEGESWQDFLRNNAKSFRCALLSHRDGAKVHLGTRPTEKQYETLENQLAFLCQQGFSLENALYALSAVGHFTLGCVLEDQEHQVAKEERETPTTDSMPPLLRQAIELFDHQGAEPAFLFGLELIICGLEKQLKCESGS
row,Sequence,TetR repression strength
1,TCCCTTCGAGTCCGAGAGA,0.228
2,TCCCTGGAAGTGAGTGAGA,0.187
3,TCCCTACCAGTAATGGAGA,0.278
4,TCCCCCTGAGTAGTAGAGA,0.207
5,TCCCGGATAGTTTGGGAGA,0.194
6,TCCCCGGCAGTGTCTGAGA,0.216
7,TCCCAACGAGTAGGGGAGA,0.0703
8,TCCCTGACAGTCCGTGAGA,0.248
9,TCCCATCGAGTGTTCGAGA,0.35
10,TCCCAGTGAGTCTAGGAGA,0.171
11,TCCCGCGGAGTCAGTGAGA,0.276
12,TCCCATTAAGTCGGTGAGA,0.0389
13,TCCCGAGCAGTAATGGAGA,0.167
14,TCCCTTGTAGTCATGGAGA,0.687
15,TCCCTTTGAGTATGGGAGA,0.0551
16,TCCCAGTCAGTCACGGAGA,0.0748
17,TCCCGCCAAGTGAGAGAGA,0.254
18,TCCCCGGGAGTATAAGAGA,0.235
19,TCCCGCGGAGTGTCGGAGA,0.485

row,Sequence,TetR repression strength
1,TCCCGAAGAGTTACTGAGA,0.154
2,TCCCAGTTAGTTTAAGAGA,0.267
3,TCCCCGGGAGTAGGCGAGA,0.134
4,TCCCGCGTAGTCTACGAGA,0.189
5,TCCCATGGAGTGATTGAGA,0.171
6,TCCCTGCCAGTTCCGGAGA,0.127
7,TCCCTAACAGTCAAGGAGA,0.364
8,TCCCACAGAGTGAACGAGA,0.387
9,TCCCTAGGAGTGGGAGAGA,0.18
10,TCCCTTATAGTAGATGAGA,0.191
11,TCCCTGTCAGTCAGGGAGA,0.213
12,TCCCTCTGAGTGATCGAGA,0.0564
13,TCCCAGATAGTCGGGGAGA,0.184
14,TCCCGTTGAGTTATCGAGA,0.304
15,TCCCGTTCAGTTGGGGAGA,0.173
16,TCCCTGTCAGTAACAGAGA,0.373
17,TCCCGTTCAGTATGTGAGA,0.259
18,TCCCGTCTAGTCGGGGAGA,0.0402
19,TCCCAGTGAGTGATAGAGA,0.528

row,Sequence,TetR repression strength
1,TCCCGGGAAGTAACAGAGA,0.349
2,TCCCGTTAAGTCGGCGAGA,0.0145
3,TCCCGGACAGTGATGGAGA,0.168
4,TCCCGTGTAGTGTTAGAGA,0.24
5,TCCCGATCAGTTGATGAGA,0.188
6,TCCCACGTAGTGGCTGAGA,0.278
7,TCCCAGGCAGTACCCGAGA,0.223
8,TCCCAATAAGTAAGTGAGA,0.311
9,TCCCGAGTAGTTAATGAGA,0.184
10,TCCCAACGAGTAGGCGAGA,0.139
11,TCCCGGCAAGTCTATGAGA,0.176
12,TCCCGGCTAGTTATGGAGA,0.111
13,TCCCGCGGAGTTTATGAGA,0.184
14,TCCCGGGAAGTTCTCGAGA,0.366
15,TCCCGGACAGTGCTGGAGA,0.309
16,TCCCATGCAGTCTGAGAGA,0.173
17,TCCCTAAAAGTGGGCGAGA,0.0935
18,TCCCCAAGAGTTCGGGAGA,0.249
